Laboratory results: PubChem BioAssay AID485281 (National Center for Advancing Translational Sciences (NCATS), 2010)
Among all 350,000 compounds or so, about 260 (0.074%) were called active. The inconclusive results got no clear call from the source; some entries with a clear call stand among them for comparison. Calls follow the shape of the dose curve; as a rule, active = well fitted inhibition curve with a large enough effect; inconclusive = small, poorly fitted or top-dose-only effect; inactive = no such curve, though single readings can be large or run the other way. Where the call is inconclusive, the potency comes from a doubtful curve fit.

Molecular target: Ferritin light chain (Equus caballus) (UniProt P02791)
Assay: qHTS Assay for Identification of Novel General Anesthetics; also: nearly all actives have a fitted effect of over 20% in size
Conditions: apoferritin/1-aminoanthracene competitive binding, fluorescence; series mostly up to 77.5 µM
Procedure, shortened: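 Concentration-response curves derived by four-parameter Hill fitting of normalized fluorescence, where compounds displaced 1-AMA from 10 uM horse apoferritin following a brief 10 min room-temperature incubation; propofol titration acted as positive control.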
Potency is read from the fitted curve at half-maximal effect; tags tell the direction and shape of the fitted curve.

Sequence of UniProt P02791 (P02791 whole entry, looked up): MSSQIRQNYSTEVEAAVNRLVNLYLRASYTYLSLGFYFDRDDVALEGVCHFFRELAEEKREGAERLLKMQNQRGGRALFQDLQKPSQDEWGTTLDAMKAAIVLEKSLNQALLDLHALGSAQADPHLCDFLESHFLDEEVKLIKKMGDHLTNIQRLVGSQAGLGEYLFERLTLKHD

Compound | Potency
COC(=O)c1cc(C)sc1NC(=O)CN1CCN(C(=O)C2CCCO2)CC1 (stereo unspecified) | inconclusive: 28.2 µM [inhibitor, partial curve]
C/C=C/C=C/C(=O)[C@@H]1[C@@H]([C@]2(C)OC(=O)C(C)=C2O)[C@H]2/C(=C(O)/C=C/C=C/C)C(=O)[C@]1(C)C(=O)C2(C)O (stereo partly specified) | inactive
O=C(CCS(=O)(=O)c1ccccc1)Nc1nc2c(s1)CCCC2 | inconclusive: 50.1 µM [inhibitor, single point]
COC(=O)c1c(SC)nc2ccccc2c1OCc1cc(C)ccc1C | inconclusive: 5.62 µM [inhibitor, full curve, poor fit]
O=C(N/N=C/c1ccc(Cl)cc1)C1CC12CCC2 (stereo unspecified) | inconclusive: 25.1 µM [inhibitor, single point]
Cc1ccccc1N(CC(=O)NCCc1ccccc1)C(=O)c1ccc(N2CCCC2)nc1 | inconclusive: 44.7 µM [inhibitor, single point]
O=C(CSc1nc(-c2cccs2)cc(C(F)(F)F)n1)Nc1ccccc1Cl | inconclusive: 8.91 µM [inhibitor, partial curve]
c1cn2cc(CSC3CCCCC3)nc2s1 | inconclusive: 25.1 µM [inhibitor, single point]
c1ccc(-c2nnc(N3CCOCC3)nc2-c2ccccc2)cc1 | inconclusive: 31.6 µM [inhibitor, partial curve]
CCOC(=O)C1=C(CN(C)Cc2ccccc2)NC(=O)NC1c1ccc(OC(C)C)cc1 (stereo unspecified) | inactive
O=C(COC(=O)C12CC3CC(CC(C3)C1)C2)NCc1ccco1 | inconclusive: 28.2 µM [inhibitor, single point]
Cc1ccc(C)c(C(=O)CSc2n[nH]c(C)n2)c1 | inactive
CCn1c(=O)c(C(=O)NNC(=O)c2ccccc2Br)c(O)c2ccccc21 | inconclusive: 28.2 µM [inhibitor, single point]
COc1ccc(NC(=O)C2(c3ccc(NC(=O)c4ccc(C)cc4)cc3)CCCC2)cc1 | inactive
COc1ccc(Br)c2oc(SC)cc(=O)c12 | inconclusive: 35.5 µM [inhibitor, single point]
Oc1ccc(Cl)cc1CNc1cccc2cccnc12 | inconclusive: 50.1 µM [inhibitor, single point]
O=C1C(Cl)=C(NC2CCCCC2)C(=O)N1Cc1ccccc1 | inconclusive: 14.1 µM [inhibitor, partial curve]
CC1=NN(c2ccc(C(=O)OC(C)C)cc2)C(=O)/C1=C\C=C\c1ccco1 | inconclusive: 11.2 µM [inhibitor, partial curve]
Nc1nnc(CSCc2ccc(F)cc2)s1 | inconclusive: 35.5 µM [inhibitor, single point]
CCN(c1ccc(NC(=O)COC(=O)c2ccc3ccccc3n2)cc1)C(C)C | inconclusive: 31.6 µM [inhibitor, partial curve]
COc1cc(OC)c(OC)cc1/C=N/NC(=O)c1cccc(S(=O)(=O)N2CCOCC2)c1 | inconclusive: 17.8 µM [inhibitor, partial curve]
COCC(C)n1c(=O)sc2ccccc2c1=O (stereo unspecified) | inconclusive: 22.4 µM [inhibitor, single point]

Compound | Potency
Cc1cc(C)c(C)c(S(=O)(=O)N2CCN(c3ccc(O)cc3)CC2)c1C | inconclusive: 25.1 µM [inhibitor, partial curve]
Cc1nn(C)c2c1c(C(F)(F)F)cc(=O)n2C(C)C(=O)NCc1ccccc1 (stereo unspecified) | inactive
CN1CCc2c(sc(N)c2C(N)=O)C1 | inactive
Cc1cc(O)c2c(c1O)C(=O)c1c(O)cc(C)c(O)c1C2=O | inactive
Cc1ccc(C)c(N2CCN(CCCNC(=O)c3ccc4nc(C(C)C)oc4c3)CC2)c1 | inconclusive: 11.2 µM [inhibitor, single point]
CC(C)c1nn2c(=O)cc(COC(=O)COc3ccccc3F)nc2s1 | inconclusive: 22.4 µM [inhibitor, partial curve]
COC(=O)/C=C1\N/C(=N\c2nc(C)cc(C)n2)N(c2ccc(C)c(C)c2)C1=O | inconclusive: 44.7 µM [inhibitor, single point]
O=C(OCCN1C(=O)c2ccccc2C1=O)C1CCN(S(=O)(=O)c2cccs2)CC1 | inconclusive: 12.6 µM [inhibitor, partial curve]
CC(C)N(C(=O)CSc1nc(Cc2ccccc2)nc2ccccc12)C(C)C | inconclusive: 39.8 µM [inhibitor, single point]
Fc1ccccc1CSc1nncn1NC/C=C/c1ccccc1 | inconclusive: 17.8 µM [inhibitor, partial curve]
Cc1ccc(C(=O)COC(=O)c2cccc(NC(=O)c3ccc([N+](=O)[O-])cc3[N+](=O)[O-])c2)cc1 | inconclusive: 1.78 µM [inhibitor, full curve]
Cc1ccc(S(=O)(=O)Nc2nc3n(n2)C(c2ccc(Cl)cc2)C=C(c2ccccc2)N3)cc1 (stereo unspecified) | inconclusive: 5.62 µM [inhibitor, partial curve]
COc1ccc(CCNC(=O)c2cc(-c3ccc(C)c(C)c3)nc3ccccc23)cc1OC | inconclusive: 2.24 µM [inhibitor, full curve]
CCCn1c2ccc(C)cc2c2nnc(SCCN3CCCCC3)nc21 | inconclusive: 8.91 µM [inhibitor, full curve, poor fit]
COc1ccc(CNC(=O)c2sccc2-c2ccccc2)cc1OC | inconclusive: 20 µM [inhibitor, partial curve]
COC(=O)c1c(C)nc2ccccc2c1-c1ccccc1 | inconclusive: 31.6 µM [inhibitor, partial curve]
O=C(OCc1csc(-c2ccccc2)n1)c1ccc(O)cc1 | inconclusive: 20 µM [inhibitor, partial curve]
CC1CCc2sc3nc(N4CCN(CCO)CC4)n4ncnc4c3c2C1 (stereo unspecified) | inconclusive: 56.2 µM [inhibitor, single point]
COc1ccc(NC(=O)C(=O)c2cn(CC(=O)N3CCCC3)c3ccccc23)cc1OC | inconclusive: 20 µM [inhibitor, partial curve]
Cc1ccc(-c2cn3c(n2)sc2cc(C(=O)NC4CCCCC4)ccc23)cc1 | inconclusive: 2.82 µM [inhibitor, partial curve]
CC1CCN(c2ccccc2NC(=O)c2ccc(F)cc2)CC1 | inactive
COc1ccc(CCNC(=O)CCn2c(=O)c3cccn3c3ccc(F)cc32)cc1OC | inconclusive: 28.2 µM [inhibitor, partial curve]

Compound | Potency
CCCCCCCCN=C(N)c1ccc(C(=O)OCC2CCCCC2)cc1 | inconclusive: 31.6 µM [inhibitor, partial curve]
CCc1nc2ccccc2c(C(=O)OCc2nnc(-c3ccccc3)o2)c1C | inconclusive: 31.6 µM [inhibitor, partial curve]
CCCCC1C(=O)N(c2ccccc2)N(c2ccc(O)cc2)C1=O (stereo unspecified) | inactive
COc1ccc(CN(C2CCCC2)S(=O)(=O)c2ccc(-n3cnnn3)cc2)cc1 | inconclusive: 6.31 µM [inhibitor, single point]
O=C(O)CCSc1nnc(-c2ccc(Cl)cc2Cl)o1 | inactive
O=C(COC(=O)c1ccc2[nH]c3c(c2c1)CCCC3)Nc1ccccc1 | inconclusive: 50.1 µM [inhibitor, single point]
CCc1nnc(NC(=O)C(NS(=O)(=O)c2ccc3c(c2)OCCO3)C(C)C)s1 (stereo unspecified) | inactive
Oc1ccccc1C1=NOC(O)(C(F)F)C1 (stereo unspecified) | inconclusive: 25.1 µM [inhibitor, partial curve]
O=C(CN1CCN(Cc2ccccc2Cl)CC1)N/N=C/C=C/c1ccccc1[N+](=O)[O-] | inconclusive: 28.2 µM [inhibitor, single point]
O=S(=O)(Nc1ccc(F)cc1)N1CCCCCC1 | inconclusive: 22.4 µM [inhibitor, partial curve]
Cc1ccc2nc(N(Cc3cccnc3)C(=O)CCc3ccccc3)sc2c1 | inactive
N#C/C(=N\Nc1ccc(S(=O)(=O)N2CCc3ccccc32)cc1)C(N)=S | inconclusive: 22.4 µM [inhibitor, partial curve]
Cc1c(NC(=O)C(C)c2ccc(CC(C)C)cc2)c(=O)n(-c2ccccc2)n1C (stereo unspecified) | inconclusive: 35.5 µM [inhibitor, single point]
C/C(=N/NC(=O)CNC(=O)c1ccccn1)c1ccc([N+](=O)[O-])cc1 | inconclusive: 25.1 µM [inhibitor, partial curve]
Cc1c(Cl)cccc1N=Cc1ccc([N+](=O)[O-])s1 | inconclusive: 39.8 µM [inhibitor, partial curve]
CCn1c(SCC(=O)Nc2nc(-c3ccccc3)cs2)nnc1-c1ccccc1 | inconclusive: 3.98 µM [inhibitor, full curve]
Cc1ccc(C(=O)OCC(=O)Nc2sc3c(c2C#N)CCCC3)cc1NC(=O)c1ccco1 | inconclusive: 17.8 µM [inhibitor, partial curve]
Cc1sc2c(c1C)c(=O)n(-c1ccc(Cl)cc1)c(=O)n2CC(=O)c1ccccc1 | inactive
NCC(=O)Nc1ccc(Cl)cc1C(=O)c1ccc[nH]1 | inconclusive: 22.4 µM [inhibitor, partial curve]
O=c1[nH]c2ccc(S(=O)(=O)Nc3cc(Cl)ccc3O)cc2o1 | inconclusive: 31.6 µM [inhibitor, single point]
Cc1ccn2c(-c3csc(NCc4ccccc4)n3)c(C)nc2c1 | inactive
CC(=O)c1c(C)[nH]c(C(=O)CSc2nc3ccccc3n2C)c1C | inconclusive: 28.2 µM [inhibitor, partial curve]
